Laboratory results from the supplement of paper PMC4466236.
In all, about 33,000 sequences were measured (“E-score (dimensionless, -0.5 to 0.5)”: median about -0.058, highest 2% from about 0.35 on). The list shows a part of the results.

System: MvaT
Assay: PBM 8-mer E-score (mean of HK and ME arrays) (E-score (dimensionless, -0.5 to 0.5)); higher = stronger relative binding preference; most listed sequences are background and not binding sites
How it was run: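 Full-length P. aeruginosa MvaT carrying an N-terminal glutathione S-transferase tag was tested by protein binding microarray following a previously described protocol. Two universal double-stranded 60-mer arrays, ME and HK, were used, each with a constant 25-mer primer region and a variable 35-mer region covering all 8-mers. The rank-based E-score is the mean of the two arrays, parsed with a custom script. Its range runs from -0.5 to 0.5 for each 8-mer.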

Row | Sequence | PBM 8-mer E-score
1 | AACAAGTG | 0.0247
2 | GTGGAGCA | -0.12
3 | AAGCATTG | -0.0753
4 | GAACGGAC | -0.211
5 | CGACCCAC | -0.135
6 | AGGAAGCC | -0.252
7 | AATCTTCA | 0.156
8 | GCTCCGAA | -0.143
9 | AGTATTCC | 0.0623
10 | CAGCACTA | -0.0158
11 | AAGTATTG | 0.214
12 | GGAGCCGA | -0.232
13 | CCCAGTTC | -0.148
14 | TGTCCACA | -0.0993
15 | TATTTGCA | 0.326
16 | ACACTGAT | 0.178
17 | GTGTTTGA | 0.103
18 | CAAAGTCA | 0.0289
19 | AGATGCAC | -0.237
20 | CTATTCGA | 0.0943
21 | CTTGCCGC | -0.0843
22 | GAAGCTTC | -0.144
23 | AAAAATGC | 0.0931
24 | GAATTCAA | 0.0832
25 | CCGAGGTA | -0.117

Row | Sequence | PBM 8-mer E-score
26 | GGCATCCA | -0.181
27 | GGTTAGCA | -0.0956
28 | CTAAAGAC | -0.0237
29 | CCAAGACC | -0.21
30 | ATCGTTCA | -0.0616
31 | AGATATAA | 0.373
32 | CTTTTTCA | -0.00205
33 | ACTGATTG | 0.139
34 | AACCTATT | 0.167
35 | AGGGAACG | -0.228
36 | CCCTAAGA | -0.184
37 | CCATGATC | -0.205
38 | ATCCACCC | 0.00492
39 | TCAGTGAA | -0.0378
40 | ACCTGGCG | -0.257
41 | GCTAGGGA | -0.249
42 | GGCCTAAC | -0.288
43 | CAACTGCC | -0.132
44 | ATTCTGGC | -0.00876
45 | AAAGAAAC | 0.143
46 | GATCCAGC | -0.0939
47 | AAAAATCC | -0.0237
48 | CCACGTAC | -0.12
49 | CAGCGAGA | -0.018
50 | ATGAGCAC | 0.00796

Row | Sequence | PBM 8-mer E-score
51 | ACGTGAAG | 0.0431
52 | CGGGGAAG | -0.29
53 | AGCTATAA | 0.155
54 | CTTTTTTA | 0.216
55 | CAACATAG | 0.178
56 | CAAACCTA | 0.0792
57 | AGCATTCC | -0.107
58 | TGATATCA | 0.178
59 | ATTATGCG | 0.166
60 | ATAGGATC | -0.115
61 | ACTGTGAG | -0.00755
62 | CTATCACA | -0.0632
63 | GCTTACCA | -0.00565
64 | ACCTACTA | 0.00365
65 | TTACCGAA | 0.017
66 | GCGTCTCA | -0.242
67 | ACCGCCCA | -0.125
68 | AAGAGACA | 0.0388
69 | AACAGGGC | -0.0721
70 | CCGGGGTA | -0.122
71 | CCAGGGGG | -0.358
72 | AATGTGGG | 0.11
73 | ACTGGCCC | -0.233
74 | GCGAACAA | 0.127
75 | CTCAAATC | 0.024

Row | Sequence | PBM 8-mer E-score
76 | AACCAAAG | 0.011
77 | CCACGGCC | -0.305
78 | CGGGCATA | -0.0997
79 | AAGCTGCG | -0.136
80 | TAACCGGA | 0.0717
81 | CACTACAC | 0.183
82 | CGTTTGGA | 0.0127
83 | CTTTGGCC | -0.181
84 | ACCTTGAT | 0.0589
85 | TGATGTAA | 0.0749
86 | GTGGTTCA | -0.161
87 | AATGAGAC | -0.127
88 | TCAACCAA | 0.0129
89 | ATTACGTA | 0.193
90 | GTTAGAAC | 0.136
91 | AGCTCGGG | -0.184
92 | GAGTAAAC | 0.00332
93 | AGTACCAG | -0.0318
94 | AGTCTGTG | -0.087
95 | ACCTCTGC | -0.22
96 | GGACGTGA | -0.13
97 | AATGCTTC | -0.0965
98 | AATCAGTA | 0.253
99 | GCGATGTA | -0.0216
100 | GATTGAAA | 0.12

Row | Sequence | PBM 8-mer E-score
101 | AGCCTTAG | -0.155
102 | AGGTGTGC | -0.0777
103 | ACATTATG | 0.249
104 | CCCGTGCA | -0.0425
105 | CCTCAGAG | -0.297
106 | AGTCTGGC | -0.0658
107 | CGAACATC | -0.132
108 | GTCCCAGA | -0.0405
109 | ACGACAGT | -0.0945
110 | AATACTCA | 0.0804
111 | TACGCGCA | 0.1
112 | ATAGTGGC | 0.101
113 | ATAGGGGG | -0.218
114 | CCCAAAAG | -0.0849
115 | AAGGCTGG | -0.135
116 | CTCACGAC | -0.188
117 | AGTGGAGA | -0.0672
118 | ACCGCAGA | -0.0434
119 | GCTTATAA | 0.418
120 | AGGTCTAT | -0.099
121 | AGATCAAT | 0.144
122 | TCTCGAGA | 0.0472
123 | AGCCGAGG | -0.237
124 | AATTTGAA | 0.268
125 | GATCTAGC | 0.0422

Row | Sequence | PBM 8-mer E-score
126 | CCGATAAG | -0.0846
127 | CTATATGC | 0.227
128 | CGACGCTA | -0.0964
129 | AACATACT | 0.207
130 | TAACACCA | 0.115
131 | CATAAGCA | 0.0445
132 | ACATGTTA | 0.269
133 | CTAGTATC | -0.0351
134 | GAACATCA | -0.0573
135 | GCTCGTCC | -0.331
136 | ATGTGTAA | 0.297
137 | CAGTGCGC | -0.0407
138 | ACGACGAC | 0.0165
139 | CGTGATTA | 0.179
140 | GAGTTAAC | 0.254
141 | CCAGGCGC | -0.338
142 | AGGCTATG | -0.175
143 | CTTAACGC | 0.0119
144 | ACCCCAGG | -0.231
145 | CTGGAACC | -0.182
146 | AACCAGCT | -0.14
147 | AGTCAGAT | -0.0668
148 | GAAGCATC | -0.289
149 | CCAATGGA | -0.208
150 | CAGCTGGC | -0.326

Row | Sequence | PBM 8-mer E-score
151 | CGTTGACC | -0.113
152 | AGCCGCCG | -0.291
153 | ATACTGAA | 0.157
154 | AACACCTG | -0.244
155 | AAGGAACG | -0.228
156 | ATCATACG | 0.0687
157 | ACTTCAGG | 0.0381
158 | AGAACATA | 0.172
159 | ATACGAGC | -0.0077
160 | CATACTGG | -0.015
161 | GTTCTGTA | 0.106
162 | CATGCTGA | -0.0933
163 | CAACGCCA | 0.032
164 | TTCCCAAA | 0.183
165 | TAAAAAGA | 0.241
166 | ACGTGCGC | -0.18
167 | ATCCGGCC | -0.247
168 | CTTGACAC | -0.095
169 | GCCCTATA | 0.00721
170 | CTTGAGCA | -0.103
171 | ACGGCAAT | 0.218
172 | CATTTGAC | -0.0544
